Measured values reported in publication PMC7819943, “Rice protein-binding microarrays: a tool to detect cis-acting elements near promoter regions in rice”.
The list shows a part of the results.

Molecular target: T1, OsWOX13 (Oryza sativa, UniProt Q5QMM3 1-267)
T1 sequence: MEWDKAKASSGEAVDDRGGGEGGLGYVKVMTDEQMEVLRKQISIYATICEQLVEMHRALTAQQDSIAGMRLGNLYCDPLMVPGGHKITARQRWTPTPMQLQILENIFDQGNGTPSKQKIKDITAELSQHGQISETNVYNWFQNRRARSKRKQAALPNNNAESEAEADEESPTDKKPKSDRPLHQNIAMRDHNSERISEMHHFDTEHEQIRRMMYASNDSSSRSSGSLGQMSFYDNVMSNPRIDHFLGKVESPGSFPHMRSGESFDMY
Assay: protein-binding microarray (RPBM); PBS, 2% BSA, 51.3 ng/ul salmon testes DNA, 50 uM zinc acetate, 200 nM TF, 25 C, 1 h; high values mean tight binding
Conditions: protein: recombinant; tags: N-terminal polyhistidine and DsRed monomer fusion (pET32a); label: CyDye5-dUTP incorporated in the synthesized complementary strand; 3' TTTTT single-stranded linker to array surface; dsDNA, one strand shown
Method in brief: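 For the binding signal, per-feature fluorescence intensity was read in arbitrary units on an Axon 4000B scanner. Before scanning, a 2% BSA-blocked custom Agilent array made double-stranded with Cy5-dUTP was washed after 1 h at 25 °C with 200 nM protein and 50 µM zinc acetate. The proteins were Ni–NTA-purified transcription factors with N-terminal polyhistidine and DsRed fusions, expressed in E. coli BL21-CodonPlus.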

Sequence	binding signal
TTTATTGATTTGTTTCTCTGCTGTTTTCTTTCCAGCAAGGCGGAGTCACCTAGTGCAG	37900 fluorescence intensity (a.u.)
CAAAATTACCAAACCCATTAATTAACATCTTCAGTCAAAACGGAGTCACCTAGTGCAG	5070 fluorescence intensity (a.u.)
GGAGGGTGAATTCGTTAATTATTATAAATGTAGGGGTGTACGGAGTCACCTAGTGCAG	7520 fluorescence intensity (a.u.)
TGTGTCCAAATATTCAATGTGATTGGGGAAGCTGGAGTAGCGGAGTCACCTAGTGCAG	4990 fluorescence intensity (a.u.)
GAGTGGAATTGACTAGTACTAGTATAGTAGACGGACGGCCCGGAGTCACCTAGTGCAG	6340 fluorescence intensity (a.u.)
CTGATTTTACATGTCATTAAAATATTATTAATATCGATCACGGAGTCACCTAGTGCAG	6710 fluorescence intensity (a.u.)
GAAACTGATGATGACACTGTTAAATTGTGTTGTATAACTGCGGAGTCACCTAGTGCAG	30100 fluorescence intensity (a.u.)
ATTGTCAAAATTTGTGTGATTGCCATCTCCTTCGCCATTGCGGAGTCACCTAGTGCAG	27000 fluorescence intensity (a.u.)
TATGATAGGATAGGAGAAACAAGTTGTACGCCACGCCGCACGGAGTCACCTAGTGCAG	6520 fluorescence intensity (a.u.)
CCATTAACAAACTAAAATGACAGCTCCGCACTGCCCCAACCGGAGTCACCTAGTGCAG	11800 fluorescence intensity (a.u.)
AAATTGCAATCTTCGCGTGACATCAAATTTCTCTTAACGTCGGAGTCACCTAGTGCAG	4300 fluorescence intensity (a.u.)
TCCATGATTGCATGGGCCTACCAGCCCATGTCGAGTATGGCGGAGTCACCTAGTGCAG	31000 fluorescence intensity (a.u.)
AAATGTGGAATAATTAACTATTTACCACTCTTACGAATAGCGGAGTCACCTAGTGCAG	4100 fluorescence intensity (a.u.)
TTAAAGATTGATCTCAGGGCTCTTGTTTAGATCCTGTCCGCGGAGTCACCTAGTGCAG	9580 fluorescence intensity (a.u.)
GAGTAATTACGAGCTGCATTAACATAATCATGGTTTTCTCCGGAGTCACCTAGTGCAG	19100 fluorescence intensity (a.u.)
TAACCAATCATATCAAATTTGGTGTCCTTCCAAATTCGACCGGAGTCACCTAGTGCAG	27300 fluorescence intensity (a.u.)
TCCATAATTAGCGGCTGATTACTGTAGCATCACTGTAGCACGGAGTCACCTAGTGCAG	31200 fluorescence intensity (a.u.)
TAATAATTGGTATTGTTGAGCCGAAGGATATGATAAAACTCGGAGTCACCTAGTGCAG	10800 fluorescence intensity (a.u.)
TTAATTCTTACTAATGGATAGCTCCGTTTTACATGTTTGGCGGAGTCACCTAGTGCAG	4580 fluorescence intensity (a.u.)
AATAATTTTGTAATCGGTAGTTGTTTCCTTTTACAAACTCCGGAGTCACCTAGTGCAG	11400 fluorescence intensity (a.u.)
TCGCTTGATTCTCATCCTGTAATCAACATAATAATCGCTTCGGAGTCACCTAGTGCAG	4400 fluorescence intensity (a.u.)

Sequence	binding signal
CATAATTAACACCAACTAACTATCCAAAGCTTCACGAGATCGGAGTCACCTAGTGCAG	27800 fluorescence intensity (a.u.)
ATATTTAAGTTGAGCGTATGATTGAAATCATCAGTGAGAACGGAGTCACCTAGTGCAG	9960 fluorescence intensity (a.u.)
AGCAGATTGGTTCTCATATTGGGCCACATGGGCCTCCACCCGGAGTCACCTAGTGCAG	25100 fluorescence intensity (a.u.)
GCAAAATTTGACATGTAAGCTGCTAGGACTAGTAGTAATGCGGAGTCACCTAGTGCAG	4630 fluorescence intensity (a.u.)
TAAATTACCCAATCTGAACTGAGATCTTTGGGTGGTATCTCGGAGTCACCTAGTGCAG	4090 fluorescence intensity (a.u.)
AACCATATGCATGAGATAATTGATAAGTACACACACATTTCGGAGTCACCTAGTGCAG	9900 fluorescence intensity (a.u.)
GTCTGATTAGTGTAAATACCATGCGCTCCTAATCTCTTAACGGAGTCACCTAGTGCAG	4120 fluorescence intensity (a.u.)
TTAGCGTCTAATTATAGGATTATTTATGATAATATTCGTCCGGAGTCACCTAGTGCAG	5680 fluorescence intensity (a.u.)
GTTGGAAATAAAAGCTTGATTATATTGTCAAGTGAAGCATCGGAGTCACCTAGTGCAG	4940 fluorescence intensity (a.u.)
TCGAAATTTCAAACCTTATTGACACGGTATTTATTGTATCCGGAGTCACCTAGTGCAG	10500 fluorescence intensity (a.u.)
CCGTAATCACTATACAGTCCAAATCAACATCCTAATCTCACGGAGTCACCTAGTGCAG	6040 fluorescence intensity (a.u.)
ATATGATTGGTATAAGTCTATTTTGGTTCCCTCGTCTATTCGGAGTCACCTAGTGCAG	47100 fluorescence intensity (a.u.)
ATATATATATATATATATCATATCCGGTATTAGGTTTGTTCGGAGTCACCTAGTGCAG	11000 fluorescence intensity (a.u.)
TGTCGGCCTAATTGATGTACAGCTATCTATTACTAGTTCTCGGAGTCACCTAGTGCAG	34500 fluorescence intensity (a.u.)
CTCAATTATTGTGATGGCAAGCTCCTTTCTGTAGATGGATCGGAGTCACCTAGTGCAG	6190 fluorescence intensity (a.u.)
ATCCATAAATTTACTAGAAATAGACATGCATGTTGGATCACGGAGTCACCTAGTGCAG	12200 fluorescence intensity (a.u.)
CAATAGACTAGATTAATAGTAAACCATCTCAATAGTATGTCGGAGTCACCTAGTGCAG	4460 fluorescence intensity (a.u.)
TCCCAGGGCCCATCAATTAGTAGTGAAACAAATCCGGTGGCGGAGTCACCTAGTGCAG	7490 fluorescence intensity (a.u.)
CTTGACAGTTATTTTGACACGTCCTGGTGGTGCGTTTTAACGGAGTCACCTAGTGCAG	24300 fluorescence intensity (a.u.)
AAAATTTTAAGAAATAAATTTAACAAATAGTTTAAAGGTACGGAGTCACCTAGTGCAG	4680 fluorescence intensity (a.u.)
TTAATTGCTTACATCACAGGCTCACAGCACATAACCTTGCCGGAGTCACCTAGTGCAG	31400 fluorescence intensity (a.u.)

Sequence	binding signal
CGAATGAGTTGATTTATACCAGGTTTCTAAGGGACTGTTTCGGAGTCACCTAGTGCAG	8860 fluorescence intensity (a.u.)
TCATCATATTTGACACTGATTGGAATCCTCAGGTAGCTAGCGGAGTCACCTAGTGCAG	22800 fluorescence intensity (a.u.)
CGCGTTGTCAATTTAAAGTTGGATTCAAAATAAACATATGCGGAGTCACCTAGTGCAG	14700 fluorescence intensity (a.u.)
TTTCTTAATGTGATGTATGACGTAAACCATCACCCTTGTTCGGAGTCACCTAGTGCAG	5050 fluorescence intensity (a.u.)
TTTAAGTATATTGATGGTCTAAATTAGTCTATAATGACCGCGGAGTCACCTAGTGCAG	5760 fluorescence intensity (a.u.)
CGTGTTAATTTTGGGAGTGCTGATGATACAGGATGGTTTCCGGAGTCACCTAGTGCAG	9680 fluorescence intensity (a.u.)
ACCAAACGCCTTGATTGAAACCATCGATATACATATGTAACGGAGTCACCTAGTGCAG	34900 fluorescence intensity (a.u.)
ACTTTCCTAATTGCGATTCGGCGAAGTCGCGTTATAATACCGGAGTCACCTAGTGCAG	4540 fluorescence intensity (a.u.)
TCTGTGATTGCGGCCAAACGAGATAGATTTCCGAGATGAGCGGAGTCACCTAGTGCAG	43400 fluorescence intensity (a.u.)
ACTATGCCAATTAAAATAAATCAATACAATAGGTATGATTCGGAGTCACCTAGTGCAG	9790 fluorescence intensity (a.u.)
ATTGATTTGATGAAACTAATTTACGGCACAATAGCAAATCCGGAGTCACCTAGTGCAG	57600 fluorescence intensity (a.u.)
GTGATTAGATGACCTACTGCTTATTTATTTTCATTCATACCGGAGTCACCTAGTGCAG	19700 fluorescence intensity (a.u.)
ACTACTTAATTTAGCTTATTTTGCATACTTGGTTTCTACACGGAGTCACCTAGTGCAG	8880 fluorescence intensity (a.u.)
GCTAATTAAATTAATAATTCATCTTAGGAATCACAGCGTCCGGAGTCACCTAGTGCAG	39000 fluorescence intensity (a.u.)
GTAGACAACATAAGATTATATAAGTTAACGTGGTTTATGACGGAGTCACCTAGTGCAG	3820 fluorescence intensity (a.u.)
GGTGATAGATGGGGAAGATAGGGAAGAGAGGAAGAAGAATCGGAGTCACCTAGTGCAG	12300 fluorescence intensity (a.u.)
ATATTATTGATGATGTGGAGAAGTTAAAGGAGCATGCACACGGAGTCACCTAGTGCAG	6220 fluorescence intensity (a.u.)
GACAGGTGACTGATTTGCTCAATAAACAATCTGAGGAATACGGAGTCACCTAGTGCAG	20300 fluorescence intensity (a.u.)
ACAAAATTAAATAGACAAATCCATACATGCACTAGACATGCGGAGTCACCTAGTGCAG	26500 fluorescence intensity (a.u.)
CATAATTTCGTAAGTGAATTTGCTTCAGTTATATAAATGCCGGAGTCACCTAGTGCAG	9650 fluorescence intensity (a.u.)
CTAAAGTTTAATTGTACTCTAAACATAGGCCTAATTTAGTCGGAGTCACCTAGTGCAG	6650 fluorescence intensity (a.u.)

Sequence	binding signal
ATCCATGATTTGCTACCGTGATGCTACAGTAATCAGCCGCCGGAGTCACCTAGTGCAG	29000 fluorescence intensity (a.u.)
TTATGATTTATTAACTAGTAGTAGATTTGAAGTTCTTAAGCGGAGTCACCTAGTGCAG	16400 fluorescence intensity (a.u.)
AGAAAATATGGTCACATATTTGATTGGCAATTGCAAAGGACGGAGTCACCTAGTGCAG	23900 fluorescence intensity (a.u.)
AGAGATCGATCGATTAATTAGCAACAAGCCAACGACAAGCCGGAGTCACCTAGTGCAG	4950 fluorescence intensity (a.u.)
ATTAATCTATAATTATAGAATGTTTATTGTAGCATCACATCGGAGTCACCTAGTGCAG	20400 fluorescence intensity (a.u.)
GGAAGCAAATTACAGAGATTAGGCACCACAAAATTGGTGGCGGAGTCACCTAGTGCAG	3840 fluorescence intensity (a.u.)
TATTAATTTTCATCGATCTTAGTAAGTATCCTATTTACCTCGGAGTCACCTAGTGCAG	7750 fluorescence intensity (a.u.)
GTCATATCAATAATTTATTATGTTTACCTAGAGCATGTCTCGGAGTCACCTAGTGCAG	12300 fluorescence intensity (a.u.)
TATTGATGTTTCAGGTTGATAGAATCAGTGATACCCTGCACGGAGTCACCTAGTGCAG	4280 fluorescence intensity (a.u.)
CAACTAATTTAACCACTGTTTAATGCTTCTTCTGCTAACTCGGAGTCACCTAGTGCAG	24800 fluorescence intensity (a.u.)
CATAAATCAGGAATCATGACCCATGTTGTAAACTTCAAGACGGAGTCACCTAGTGCAG	3860 fluorescence intensity (a.u.)
CTGTGTAATTAGTTTATTTTGTCTATATTTAATACTCTATCGGAGTCACCTAGTGCAG	22800 fluorescence intensity (a.u.)
AGAAATTGACGCCTTGAAATCTGCAATTAATGCAATTTTGCGGAGTCACCTAGTGCAG	33000 fluorescence intensity (a.u.)
CATGATAAATTCATCATGGTTTCTTCGGGAAGCATGATGGCGGAGTCACCTAGTGCAG	3920 fluorescence intensity (a.u.)
ATTGATGTAACTAGATTTATCATCAAACAAACTACTATCACGGAGTCACCTAGTGCAG	15400 fluorescence intensity (a.u.)
GTGCTGATAAACACATAATTACTATGAAGCCATTGGAGTTCGGAGTCACCTAGTGCAG	9150 fluorescence intensity (a.u.)
AGGTTCCAGTTGATTAGCTTTGGCAAAATATAACTGATCCCGGAGTCACCTAGTGCAG	9370 fluorescence intensity (a.u.)
CTCAATCACAGAATCATATTGTTGACTGAAGTATCTTGATCGGAGTCACCTAGTGCAG	19700 fluorescence intensity (a.u.)
AAGTTTGTTGATTGTGCTAAACTATGTCATTTGAAGTTGTCGGAGTCACCTAGTGCAG	10200 fluorescence intensity (a.u.)
GACTTTATTTATAATCATTATCCATCAAAACTTTAGAGAACGGAGTCACCTAGTGCAG	12800 fluorescence intensity (a.u.)
ATAGAGGAGATTGAGAAGATACGCAAAACGAGATGAGCTACGGAGTCACCTAGTGCAG	5110 fluorescence intensity (a.u.)
